We go through five compounds from US4248863A, “Antibiotics saframycins A, B, C, D and E and process for producing the same” (priority 1977, dated 1981).

The assay concerns cultured cells of L 1210 in mouse leukemia. The experiment in a line: Inhibition of growth of cultured cells of L 1210 mouse leukemia. The following applies: for IC100: Mus musculus, L1210, read-out: concentration that can completely inhibit the cell growth; for concentration that can completely inhibit the cell growth: cultured cells of L 1210 in mouse leukemia.

With `COC1=C(C)C(=O)C2=C(C1=O)C1C3CC4=C(C(=O)C(OC)=C(C)C4=O)C(CNC(=O)C(C)=O)N3C(C#N)C(C2)N1C` (centres unmarked) [saframycin A], the IC100 was 0.02 µg/mL.

For the compound `COC1=C(C)C(=O)C2=C(C1=O)C1C3CC4=C(C(=O)C(OC)=C(C)C4=O)C(CNC(=O)C(C)=O)N3CC(C2)N1C` (centres unmarked) [saframycin B], the IC100 was found to be 5 µg/mL.

`COC1=C(C)C(=O)C2=C(C1=O)[C@@H]1[C@@H]3CC4=C(C(=O)C(OC)=C(C)C4=O)[C@H](CNC(=O)C(C)=O)N3C[C@H]([C@H]2OC)N1C` [saframycin C]: the “concentration that can completely inhibit the cell growth” value turned out to be 20 µg/mL.

As for `COC1=C(C)C(=O)C2=C(C1=O)[C@H](CNC(=O)C(C)=O)N1C[C@H]3C(=O)c4c(O)c(C)c(OC)c(O)c4[C@@H]([C@@H]1C2)N3C` [saframycin D], the “concentration that can completely inhibit the cell growth” value was 20 µg/mL.

Regarding `COC1=C(C)C(=O)C2=C(C1=O)[C@H](CNC(=O)C(C)=O)N1C[C@@H]3[C@@H](O)c4c(O)c(C)c(OC)c(O)c4[C@H]([C@@H]1C2)N3C` [saframycin E], the “concentration that can completely inhibit the cell growth” value amounted to 20 µg/mL.
